US20250188179A1 (ADAGENE PTE, published 2025)

How the values were obtained:
[1] = target: T1, full-length human CD137 with C-terminal 3xMyc tag displayed on yeast cells (human, UniProt Q07011 24-255); test: FACS titration on yeast displaying full-length hCD137-3xMyc, no protease; data batch 4
T1 construct: whole, on cells; not used; also called hCD137; not shown: C-terminal 3xMyc tag

[2] = target: T1, full-length human CD137 with C-terminal …; test: KD divided by KD of parental antibody; FACS on yeast hCD137; data batch 4
[3] = target: T1, full-length human CD137 with C-terminal …; test: KD divided by KD of parental antibody; FACS on yeast hCD137; data batch 1
[4] = target: T1, full-length human CD137 with C-terminal …; test: FACS titration on yeast displaying full-length hCD137-3xMyc, no protease; data batch 3
[5] = target: T1, full-length human CD137 with C-terminal …; test: KD divided by KD of parental antibody; FACS on yeast hCD137; data batch 2
[6] = target: T1, full-length human CD137 with C-terminal …; test: FACS titration on yeast displaying full-length hCD137-3xMyc, no protease; data batch 2
[7] = target: T2, His-tagged recombinant human FcγRIIa (human, UniProt P12318 36-218, limits assumed); test: BLI (Fortebio), His-tagged FcγR captured on anti-Penta-His sensor, antibody in solution, steady state analysis
T2 construct: His-tagged; also called hFcγRIIa
T2 sequence (looked up): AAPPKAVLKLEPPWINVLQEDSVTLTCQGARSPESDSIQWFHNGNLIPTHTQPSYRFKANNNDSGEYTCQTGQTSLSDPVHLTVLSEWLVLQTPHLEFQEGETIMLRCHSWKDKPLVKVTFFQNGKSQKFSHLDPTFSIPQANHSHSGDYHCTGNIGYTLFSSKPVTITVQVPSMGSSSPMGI

[8] = target: T3, His-tagged recombinant human FcγRIIb (human, UniProt P31994 46-217, limits assumed); test: as above
T3 construct: His-tagged; also called hFcγRIIb
T3 sequence (looked up): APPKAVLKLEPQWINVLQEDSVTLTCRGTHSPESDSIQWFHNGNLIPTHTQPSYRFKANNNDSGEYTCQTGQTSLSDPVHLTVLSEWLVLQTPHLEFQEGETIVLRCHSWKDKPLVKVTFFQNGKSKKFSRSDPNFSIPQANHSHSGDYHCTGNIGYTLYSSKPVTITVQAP

[9] = target: T1, full-length human CD137 with C-terminal …; test: KD divided by KD of parental antibody; FACS on yeast hCD137; data batch 3
[10] = target: T1, full-length human CD137 with C-terminal …; test: FACS titration on yeast displaying full-length hCD137-3xMyc, no protease; data batch 1

T1 sequence (Q07011 24-255): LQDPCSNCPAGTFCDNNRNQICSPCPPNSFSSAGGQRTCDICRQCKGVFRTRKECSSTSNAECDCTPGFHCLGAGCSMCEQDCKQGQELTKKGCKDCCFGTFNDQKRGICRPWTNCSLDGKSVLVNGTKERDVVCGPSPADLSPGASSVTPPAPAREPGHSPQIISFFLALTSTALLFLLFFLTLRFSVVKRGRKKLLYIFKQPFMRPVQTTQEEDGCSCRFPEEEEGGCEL

B1: TY21242 (antibody, human IgG4 S228P, kappa)
heavy: EVQLVESGGGLVQPGGSLRLSCAASGFSLSTGGVGVGWIRQAPGKGLEWLALIDWADDKYYSPSLKSRLTISRDNSKNTLYLQLNSLRAEDTAVYYCARGGSDTVIGDWFAYWGQGTLVTVSSASTKGPSVFPLAPCSRSTSESTAALGCLVKDYFPEPVTVSWNSGALTSGVHTFPAVLQSSGLYSLSSVVTVPSSSLGTKTYTCNVDHKPSNTKVDKRV[in this place human IgG4 Fc with S228P (EU numbers)]
light: DIQLTQSPSSLSASVGDRVTITCRASQSIGSYLAWYQQKPGKAPKLLIYDASNLETGVPSRFSGSGSGTDFTLTISSLQPEDFATYYCQQGYYLWTFGQGTKVEIKRTVAAPSVFIFPPSDEQLKSGTASVVCLLNNFYPREAKVQWKVDNALQSGNSQESVTEQDSKDSTYSLSSTLTLSKADYEKHKVYACEVTHQGLSSPVTKSFNRGEC
notes: Not masked; WT hIgG4 Fc; also called parental anti-CD137 antibody; TY21242 (parental)
- Kd [1]: 0.199 nM
- Masking efficiency [2]: 1 fold
- Masking efficiency [3]: 1 fold
- Kd [4]: 0.355 nM
- Masking efficiency [5]: 1 fold
- Kd [6]: 0.292 nM
- Kd [7]: 1800 nM
- Kd [8]: 2300 nM
- Masking efficiency [9]: 1 fold
- Kd [10]: 0.282 nM
